Test results reported in paper PMC8844414.
Where two headings read alike, the source gives them in different places. No constants are given. Whether binding was seen depends on the method and setting. In cells and extracts the contact can be indirect. Some binding calls cover weakened binding; strength is not graded here.

Sequences of proteins named here, by UniProt entry; tags and fusion partners are left off.
UniProt Q86U86: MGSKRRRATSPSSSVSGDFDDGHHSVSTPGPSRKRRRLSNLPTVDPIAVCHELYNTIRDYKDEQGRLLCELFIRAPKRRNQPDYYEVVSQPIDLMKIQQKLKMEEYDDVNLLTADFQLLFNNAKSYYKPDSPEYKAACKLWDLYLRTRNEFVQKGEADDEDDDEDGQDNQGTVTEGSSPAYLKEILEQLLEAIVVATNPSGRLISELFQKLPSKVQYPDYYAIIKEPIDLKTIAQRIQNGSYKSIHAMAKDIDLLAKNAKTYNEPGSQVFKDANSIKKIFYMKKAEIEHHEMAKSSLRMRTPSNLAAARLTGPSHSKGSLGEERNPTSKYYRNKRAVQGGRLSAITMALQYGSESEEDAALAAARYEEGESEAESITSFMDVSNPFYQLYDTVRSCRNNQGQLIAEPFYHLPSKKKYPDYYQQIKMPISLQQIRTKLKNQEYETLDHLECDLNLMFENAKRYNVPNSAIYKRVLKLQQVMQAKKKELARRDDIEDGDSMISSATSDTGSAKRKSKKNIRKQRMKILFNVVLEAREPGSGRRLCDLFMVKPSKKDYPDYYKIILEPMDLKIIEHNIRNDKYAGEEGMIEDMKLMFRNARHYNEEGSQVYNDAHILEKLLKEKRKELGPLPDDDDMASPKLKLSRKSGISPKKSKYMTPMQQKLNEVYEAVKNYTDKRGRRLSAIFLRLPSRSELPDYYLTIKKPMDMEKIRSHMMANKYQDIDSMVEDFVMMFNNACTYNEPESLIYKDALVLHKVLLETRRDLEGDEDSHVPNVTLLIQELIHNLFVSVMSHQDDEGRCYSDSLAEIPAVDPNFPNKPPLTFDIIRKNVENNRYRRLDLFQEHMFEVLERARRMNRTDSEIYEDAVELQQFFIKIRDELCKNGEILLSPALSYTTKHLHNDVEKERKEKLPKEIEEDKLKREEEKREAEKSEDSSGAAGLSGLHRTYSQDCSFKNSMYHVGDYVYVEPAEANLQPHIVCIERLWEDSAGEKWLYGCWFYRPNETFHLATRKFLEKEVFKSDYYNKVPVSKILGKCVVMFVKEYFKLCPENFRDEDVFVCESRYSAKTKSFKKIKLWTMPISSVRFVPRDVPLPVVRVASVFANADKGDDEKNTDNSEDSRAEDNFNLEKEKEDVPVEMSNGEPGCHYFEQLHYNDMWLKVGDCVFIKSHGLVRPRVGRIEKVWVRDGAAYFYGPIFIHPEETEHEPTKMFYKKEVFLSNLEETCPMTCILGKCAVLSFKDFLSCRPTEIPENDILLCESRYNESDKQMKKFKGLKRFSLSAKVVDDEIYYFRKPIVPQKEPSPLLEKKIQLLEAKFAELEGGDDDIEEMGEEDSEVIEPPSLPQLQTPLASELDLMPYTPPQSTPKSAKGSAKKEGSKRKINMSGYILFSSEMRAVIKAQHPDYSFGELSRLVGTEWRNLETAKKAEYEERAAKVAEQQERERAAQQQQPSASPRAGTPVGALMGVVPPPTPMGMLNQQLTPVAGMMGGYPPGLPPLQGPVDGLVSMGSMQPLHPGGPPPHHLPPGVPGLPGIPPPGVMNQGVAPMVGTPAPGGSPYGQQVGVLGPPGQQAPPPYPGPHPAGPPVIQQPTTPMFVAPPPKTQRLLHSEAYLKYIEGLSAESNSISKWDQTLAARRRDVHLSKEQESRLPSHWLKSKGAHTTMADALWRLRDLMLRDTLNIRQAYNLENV
UniProt Q92785: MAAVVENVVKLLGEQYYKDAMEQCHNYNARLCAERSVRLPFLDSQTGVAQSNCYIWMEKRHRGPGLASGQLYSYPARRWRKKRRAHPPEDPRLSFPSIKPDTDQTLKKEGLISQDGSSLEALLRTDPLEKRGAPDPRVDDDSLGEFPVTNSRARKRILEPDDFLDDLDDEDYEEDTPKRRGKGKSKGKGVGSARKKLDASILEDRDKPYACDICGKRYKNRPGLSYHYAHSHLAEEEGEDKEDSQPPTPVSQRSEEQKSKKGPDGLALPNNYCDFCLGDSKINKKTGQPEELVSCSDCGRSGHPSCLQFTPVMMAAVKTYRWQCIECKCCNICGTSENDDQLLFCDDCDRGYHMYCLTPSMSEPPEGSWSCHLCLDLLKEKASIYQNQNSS
UniProt Q969G3: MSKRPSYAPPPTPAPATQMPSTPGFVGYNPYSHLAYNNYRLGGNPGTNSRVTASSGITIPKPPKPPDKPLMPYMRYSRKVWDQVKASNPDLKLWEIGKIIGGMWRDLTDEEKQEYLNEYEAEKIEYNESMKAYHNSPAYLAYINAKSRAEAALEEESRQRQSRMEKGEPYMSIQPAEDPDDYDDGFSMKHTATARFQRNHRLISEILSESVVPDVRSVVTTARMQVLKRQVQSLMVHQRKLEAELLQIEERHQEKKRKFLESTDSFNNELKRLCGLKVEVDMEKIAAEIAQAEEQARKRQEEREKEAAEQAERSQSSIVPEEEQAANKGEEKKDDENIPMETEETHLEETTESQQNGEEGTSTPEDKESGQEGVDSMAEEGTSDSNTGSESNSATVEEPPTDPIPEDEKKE
UniProt P51532: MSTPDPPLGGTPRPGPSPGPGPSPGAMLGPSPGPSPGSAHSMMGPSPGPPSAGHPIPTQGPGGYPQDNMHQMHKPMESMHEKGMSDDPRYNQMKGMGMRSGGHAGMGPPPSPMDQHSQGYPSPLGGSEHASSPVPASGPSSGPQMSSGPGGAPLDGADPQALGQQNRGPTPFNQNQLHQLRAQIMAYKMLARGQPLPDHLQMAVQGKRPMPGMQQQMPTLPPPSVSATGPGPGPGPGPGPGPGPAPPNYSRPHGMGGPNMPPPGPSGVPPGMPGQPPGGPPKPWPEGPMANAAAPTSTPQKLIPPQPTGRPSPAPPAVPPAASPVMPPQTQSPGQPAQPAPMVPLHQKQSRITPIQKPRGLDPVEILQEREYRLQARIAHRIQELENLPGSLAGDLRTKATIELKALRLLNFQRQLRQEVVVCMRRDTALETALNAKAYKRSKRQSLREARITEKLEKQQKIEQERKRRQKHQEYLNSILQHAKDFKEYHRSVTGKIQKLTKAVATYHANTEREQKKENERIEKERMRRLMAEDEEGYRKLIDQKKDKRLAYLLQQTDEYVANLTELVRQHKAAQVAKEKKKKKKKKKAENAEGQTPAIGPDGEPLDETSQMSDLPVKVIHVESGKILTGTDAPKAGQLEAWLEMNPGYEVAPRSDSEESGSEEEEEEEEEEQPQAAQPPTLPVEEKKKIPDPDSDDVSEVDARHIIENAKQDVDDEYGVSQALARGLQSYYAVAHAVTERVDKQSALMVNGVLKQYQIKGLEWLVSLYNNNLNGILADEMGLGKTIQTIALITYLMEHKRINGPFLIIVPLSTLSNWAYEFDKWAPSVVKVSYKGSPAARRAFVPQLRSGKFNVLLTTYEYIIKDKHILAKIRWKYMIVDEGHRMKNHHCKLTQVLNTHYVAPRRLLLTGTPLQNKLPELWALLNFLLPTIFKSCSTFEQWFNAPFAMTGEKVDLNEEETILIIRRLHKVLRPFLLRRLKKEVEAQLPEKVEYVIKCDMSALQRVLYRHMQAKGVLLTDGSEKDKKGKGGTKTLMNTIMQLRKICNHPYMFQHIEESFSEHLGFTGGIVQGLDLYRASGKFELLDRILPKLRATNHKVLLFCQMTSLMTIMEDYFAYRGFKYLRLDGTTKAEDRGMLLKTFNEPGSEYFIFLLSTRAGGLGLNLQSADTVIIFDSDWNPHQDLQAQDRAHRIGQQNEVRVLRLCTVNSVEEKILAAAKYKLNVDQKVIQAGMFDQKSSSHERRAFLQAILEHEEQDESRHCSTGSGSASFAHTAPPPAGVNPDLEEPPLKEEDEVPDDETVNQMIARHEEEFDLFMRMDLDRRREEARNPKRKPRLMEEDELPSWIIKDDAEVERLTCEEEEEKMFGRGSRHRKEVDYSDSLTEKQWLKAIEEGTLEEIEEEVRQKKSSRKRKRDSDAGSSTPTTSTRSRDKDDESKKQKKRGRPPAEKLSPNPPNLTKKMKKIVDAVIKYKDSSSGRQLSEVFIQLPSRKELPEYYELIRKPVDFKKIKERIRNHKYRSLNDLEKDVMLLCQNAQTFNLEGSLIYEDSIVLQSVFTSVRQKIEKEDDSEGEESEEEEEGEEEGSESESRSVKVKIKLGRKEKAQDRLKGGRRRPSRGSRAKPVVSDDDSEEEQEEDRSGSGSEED

Assays:
Assay in all cases: co-IP; lysates of HONE1, AGS or C666-1 cells in IP lysis buffer (50 mM Tris pH 7.4, 150 mM NaCl, 1% NP-40, 0.1% SDS); 1 µg primary antibody 2 h at room temperature, IP beads at 4 °C overnight; five washes with IP lysis buffer; detected by western blotting
[1] = molecular target: T1, FOXP1 (human (HONE1, AGS, C666-1 cells)) (UniProt Q9H334)
T1 sequence: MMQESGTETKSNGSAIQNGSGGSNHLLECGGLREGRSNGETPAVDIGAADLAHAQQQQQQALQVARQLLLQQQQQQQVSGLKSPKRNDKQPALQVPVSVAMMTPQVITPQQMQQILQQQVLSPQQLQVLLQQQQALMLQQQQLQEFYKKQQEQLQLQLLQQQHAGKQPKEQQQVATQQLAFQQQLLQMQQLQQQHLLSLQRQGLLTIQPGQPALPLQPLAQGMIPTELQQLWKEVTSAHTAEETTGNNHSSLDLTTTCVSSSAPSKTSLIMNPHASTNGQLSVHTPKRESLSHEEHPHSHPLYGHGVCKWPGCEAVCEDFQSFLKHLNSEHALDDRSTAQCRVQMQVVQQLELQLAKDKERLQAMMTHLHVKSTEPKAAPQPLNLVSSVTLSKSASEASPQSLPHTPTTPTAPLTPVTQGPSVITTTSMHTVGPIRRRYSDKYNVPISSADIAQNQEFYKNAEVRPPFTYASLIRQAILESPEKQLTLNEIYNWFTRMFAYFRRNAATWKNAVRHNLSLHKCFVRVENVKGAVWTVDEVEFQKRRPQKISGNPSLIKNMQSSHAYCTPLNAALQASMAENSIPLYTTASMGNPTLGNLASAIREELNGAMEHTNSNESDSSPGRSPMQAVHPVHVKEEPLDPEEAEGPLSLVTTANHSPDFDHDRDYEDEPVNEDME

[2] = molecular target: PBRM1 (human (HONE1, AGS, C666-1 cells)) (UniProt Q86U86)
[3] = molecular target: DPF2 (human (endogenous in HONE1, AGS, C666-1)) (UniProt Q92785)
[4] = molecular target: PBRM1 (human (HONE1, AGS, C666-1 cells)) (UniProt Q86U86); remark: listed apart in the source
[5] = molecular target: SMARCE1 (human (endogenous in HONE1, AGS, C666-1)) (UniProt Q969G3)
[6] = molecular target: SMARCA4 (human (endogenous in HONE1, AGS, C666-1)) (UniProt P51532)

For DPF2 (from UniProt Q92785 1-391), the binding [1] was “no binding” and the binding [2] was “no binding”.

For PBRM1 (from UniProt Q86U86 1-1689), the binding [1] was “binds”.

In the case of SMARCA4 (from UniProt P51532 1-1647), the binding [1] is reported as “binds”.

With SMARCE1 (from UniProt Q969G3 1-411) the binding [1] was “binds”.

B1: FOXP1 (protein, UniProt Q9H334 1-677)
chain: MMQESGTETKSNGSAIQNGSGGSNHLLECGGLREGRSNGETPAVDIGAADLAHAQQQQQQALQVARQLLLQQQQQQQVSGLKSPKRNDKQPALQVPVSVAMMTPQVITPQQMQQILQQQVLSPQQLQVLLQQQQALMLQQQQLQEFYKKQQEQLQLQLLQQQHAGKQPKEQQQVATQQLAFQQQLLQMQQLQQQHLLSLQRQGLLTIQPGQPALPLQPLAQGMIPTELQQLWKEVTSAHTAEETTGNNHSSLDLTTTCVSSSAPSKTSLIMNPHASTNGQLSVHTPKRESLSHEEHPHSHPLYGHGVCKWPGCEAVCEDFQSFLKHLNSEHALDDRSTAQCRVQMQVVQQLELQLAKDKERLQAMMTHLHVKSTEPKAAPQPLNLVSSVTLSKSASEASPQSLPHTPTTPTAPLTPVTQGPSVITTTSMHTVGPIRRRYSDKYNVPISSADIAQNQEFYKNAEVRPPFTYASLIRQAILESPEKQLTLNEIYNWFTRMFAYFRRNAATWKNAVRHNLSLHKCFVRVENVKGAVWTVDEVEFQKRRPQKISGNPSLIKNMQSSHAYCTPLNAALQASMAENSIPLYTTASMGNPTLGNLASAIREELNGAMEHTNSNESDSSPGRSPMQAVHPVHVKEEPLDPEEAEGPLSLVTTANHSPDFDHDRDYEDEPVNEDME
For B1, the binding [3] was “no binding”, the binding [4] was “binds” and the binding [5] was “binds”. The binding [6] was “binds”.
